Kd, koff and kon data for one molecule are collected here from patent US20240190978A1 (CSBIOASSET, published 2024).

The target in one assay is T1, human IL6R-Avi-tag (human, UniProt P08887 20-365, limits assumed).
T1 construct: Immobilized on NA-coated CM5 chips at about 20 RU; also called immobilized human IL6R; not shown: Avi-tag
T1 sequence (looked up): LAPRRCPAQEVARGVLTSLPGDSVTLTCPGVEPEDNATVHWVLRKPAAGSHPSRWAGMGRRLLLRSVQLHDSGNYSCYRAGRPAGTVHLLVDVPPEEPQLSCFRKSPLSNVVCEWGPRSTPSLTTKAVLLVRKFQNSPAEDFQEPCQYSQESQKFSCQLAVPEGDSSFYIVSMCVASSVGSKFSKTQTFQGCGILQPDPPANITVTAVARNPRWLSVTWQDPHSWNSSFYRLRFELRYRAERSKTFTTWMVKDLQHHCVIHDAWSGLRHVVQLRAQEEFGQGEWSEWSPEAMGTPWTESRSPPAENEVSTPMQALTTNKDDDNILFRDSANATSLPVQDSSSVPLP
As to the kind of experiment: SPR (Biacore 8K, 25 °C), hIL6R immobilized, 1:1 binding model. As for the experimental part: (§1) To evaluate binding of the bispecific binding proteins disclosed herein, surface plasmon resonance (SPR) studies were performed on a Biacore 8k instrument (GE Healthcare) at 25° C. The binding of the protein analytes was tested in buffer: 10 mM HEPES, 150 mM NaCl, 3 mM EDTA, 0.05% TWEEN20, pH7.4 on surfaces consisting of a low density (˜20RU) of human IL6R-Avi-tag or human CD80-Avi-tag which had been immobilized on NA-coated CM5 chips using standard protocol. The protein analytes were injected in a titration series at a flowrate of 50 ul/min. The data were analyzed using the Biacore Insight Evaluation software. 1:1 binding kinetic and affinity models are applied for experimental data analysis.

The next assay has as its target T2, human CD80-Avi-tag (human, UniProt P33681 35-242).
T2 construct: also called immobilized human CD80; not shown: Avi-tag
T2 sequence (looked up): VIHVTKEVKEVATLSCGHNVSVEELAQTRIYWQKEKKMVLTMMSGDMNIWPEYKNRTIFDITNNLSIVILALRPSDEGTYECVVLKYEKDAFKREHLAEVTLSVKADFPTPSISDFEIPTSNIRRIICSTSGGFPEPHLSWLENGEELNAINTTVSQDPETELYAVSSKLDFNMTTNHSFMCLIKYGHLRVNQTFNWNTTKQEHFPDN
As to the kind of experiment: SPR (Biacore 8K, 25 °C), hCD80 immobilized, 1:1 binding model. As for the experimental part:
as §1

B1: α-IL6R/CTLA-4 bispecific protein (SEQ ID NO: 1 with SEQ ID NO: 3) (bispecific antibody, human IgG4 S228P, kappa)
heavy: QVQLQESGPGLVRPSQTLSLTCTVSGYSITSDHAWSWVRQPPGRGLEWIGYISYSGITTYNPSLKSRVTMLRDTSKNQFSLRLSSVTAADTAVYYCARSLARTTAMDYWGQGSLVTVSSASTKGPSVFPLAPCSRSTSESTAALGCLVKDYFPEPVTVSWNSGALTSGVHTFPAVLQSSGLYSLSSVVTVPSSSLGTKTYTCNVDHKPSNTKVDKRV[letters of human IgG4 Fc with S228P (EU numbers) left out]AGGGGSGGGGSGGGGSGGGGSMHVAQPAVVLASSRGIASFVCEYASPGKATEVRVTVLRQADSQVTEVCAATYMMGNELTFLDDSICTGTSSGNQVNLTIQGLRAMDTGLYICKVELMYPPPYYLGIGNGTQIYVIDPEPCPDSD
light: DIQMTQSPSSLSASVGDRVTITCRASQDISSYLNWYQQKPGKAPKLLIYYTSRLHSGVPSRFSGSGSGTDFTFTISSLQPEDIATYYCQQGNTLPYTFGQGTKVEIKRTVAAPSVFIFPPSDEQLKSGTASVVCLLNNFYPREAKVQWKVDNALQSGNSQESVTEQDSKDSTYSLSSTLTLSKADYEKHKVYACEVTHQGLSSPVTKSFNRGEC
notes: Bivalent for IL6R through the Fab arms and for CD80/CD86 through the C-terminal CTLA-4 ectodomain; also called Duotein-A; Duotein
In the assay with human IL6R-Avi-tag, B1 had a Kd of 0.107 nM, a koff of 7.64e-05 s⁻¹ and a kon of 713000 M⁻¹ s⁻¹. In the assay with human CD80-Avi-tag, this molecule gave a Kd of 154 nM, a koff of 0.12 s⁻¹ and a kon of 780000 M⁻¹ s⁻¹.
